According to publication PMC7819943, “Rice protein-binding microarrays: a tool to detect cis-acting elements near promoter regions in rice”:
Some of the results follow.

target: T1, OsWOX13 (Oryza sativa, UniProt Q5QMM3 1-267); test: protein-binding microarray (RPBM); PBS, 2% BSA, 51.3 ng/ul salmon testes DNA, 50 uM zinc acetate, 200 nM TF, 25 C, 1 h; high values mean tight binding; settings: protein: recombinant; tags: N-terminal polyhistidine and DsRed monomer fusion (pET32a); label: CyDye5-dUTP incorporated in the synthesized complementary strand; 3' TTTTT single-stranded linker to array surface; dsDNA, one strand shown
T1 sequence: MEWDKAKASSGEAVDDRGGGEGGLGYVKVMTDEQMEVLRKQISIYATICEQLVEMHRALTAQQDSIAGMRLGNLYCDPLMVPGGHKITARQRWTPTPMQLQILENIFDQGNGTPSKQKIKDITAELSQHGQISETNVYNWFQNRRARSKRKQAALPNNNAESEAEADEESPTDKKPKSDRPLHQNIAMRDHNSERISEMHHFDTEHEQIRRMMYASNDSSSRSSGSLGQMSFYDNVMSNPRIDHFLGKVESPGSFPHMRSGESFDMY
Summary of the method: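 Transcription factors, each fused N-terminally to a polyhistidine tag and DsRed, were expressed in E. coli BL21-CodonPlus and purified on Ni–NTA. A custom Agilent array was made double-stranded by primer extension with Cy5-dUTP and blocked with 2% BSA. It was incubated with 200 nM protein in PBS, 2% BSA, salmon testes DNA and 50 µM zinc acetate at 25 °C for 1 h, then washed. The binding signal is per-feature fluorescence intensity (arbitrary units) read on an Axon 4000B scanner.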

| Sequence | binding signal |
| --- | --- |
| TGCCAACATAAACTCAATCAAACATGAAAATTTCAAATCCCGGAGTCACCTAGTGCAG | 3760 fluorescence intensity (a.u.) |
| CCATCGATTTGATTTTATATGATGCAACTTGGTGTTATCCCGGAGTCACCTAGTGCAG | 3370 fluorescence intensity (a.u.) |
| ACAAATTGAGTGTTATAGTGAGATGGCATCGGAGATGAGCCGGAGTCACCTAGTGCAG | 32400 fluorescence intensity (a.u.) |
| TGCCCGATTGAGATATTTTCCCACATCACTGACCTTTGGTCGGAGTCACCTAGTGCAG | 6020 fluorescence intensity (a.u.) |
| TCTTTAACCGTTCAATTATTTGCTCGAGGTTACAGAGAATCGGAGTCACCTAGTGCAG | 6830 fluorescence intensity (a.u.) |
| AACTGTTTTGATTTATTAGGGAATGTTGTCAACCAATGAACGGAGTCACCTAGTGCAG | 6480 fluorescence intensity (a.u.) |
| TAGGTGACAGTTTATTTAATGCTATTGACACTATTCTAGCCGGAGTCACCTAGTGCAG | 8640 fluorescence intensity (a.u.) |
| GGTTGTGACATGAATTGATTTGATGATCACAAGTCCTATCCGGAGTCACCTAGTGCAG | 29500 fluorescence intensity (a.u.) |
| ATCATGGGATGATTGATTAGGGATTCGAAAGAATACAATACGGAGTCACCTAGTGCAG | 46400 fluorescence intensity (a.u.) |
| AGATAAATTGCTTTTGCTAATTCAGTTCGCTTATGGAAAGCGGAGTCACCTAGTGCAG | 11900 fluorescence intensity (a.u.) |
| AGTAATTGATTTATTTTGTAAAACGTGCGCGACCCATGTTCGGAGTCACCTAGTGCAG | 48200 fluorescence intensity (a.u.) |
| GCTTACACCTAATTAACTAACAAGCACCTATATATACACCCGGAGTCACCTAGTGCAG | 9070 fluorescence intensity (a.u.) |
| GTTTGATTTGGGAATATGCATCCCACTCGATTTGGGAGAACGGAGTCACCTAGTGCAG | 17600 fluorescence intensity (a.u.) |
| TATGCAATATATATAATTAATATATGTTGATACATGTGCACGGAGTCACCTAGTGCAG | 4070 fluorescence intensity (a.u.) |
| CCAAATCAAATTGCCACGTCAATGCCACATCGATGCCACACGGAGTCACCTAGTGCAG | 5770 fluorescence intensity (a.u.) |
| AATAATTAGCCATCGTAAAGCAGTATCCATGCTAAGTCTACGGAGTCACCTAGTGCAG | 14000 fluorescence intensity (a.u.) |
| TAGGATGATTGTGAAGATGATGAAGCCGGTGGTGGCGCTGCGGAGTCACCTAGTGCAG | 23300 fluorescence intensity (a.u.) |
| TTTACAATGTTAGATTTGATGGGCAGTTGAGGTAGCCACGCGGAGTCACCTAGTGCAG | 4970 fluorescence intensity (a.u.) |
| TGCATTATGCACATGATTGAGGGAAGAAATGTGGATCTTTCGGAGTCACCTAGTGCAG | 16500 fluorescence intensity (a.u.) |
| TAGATAGATTTCCATTATCGAAAAGAAAAGGAATTGTCTGCGGAGTCACCTAGTGCAG | 4190 fluorescence intensity (a.u.) |
| TTAAATTGGTTCAATTGATGTCGACGTTACTATATTTTACCGGAGTCACCTAGTGCAG | 41200 fluorescence intensity (a.u.) |

| Sequence | binding signal |
| --- | --- |
| TTCCTCTTAATCACATATACAAAGTGCTTTGATTAAAGAACGGAGTCACCTAGTGCAG | 4660 fluorescence intensity (a.u.) |
| TTAGATTGGCTATAGATGAATTGGAGCTAATAATTGGCTACGGAGTCACCTAGTGCAG | 43500 fluorescence intensity (a.u.) |
| AAAATATCCCTGATTTGTATGAGCGGCGGTGGTGCAGTGGCGGAGTCACCTAGTGCAG | 4280 fluorescence intensity (a.u.) |
| ACGATAATTCTCCAATCCTAATACAACTACAGTATGATATCGGAGTCACCTAGTGCAG | 3560 fluorescence intensity (a.u.) |
| AACTAATTGTTTCTTCAGACTTCTTCAGAGCATTCTCCAGCGGAGTCACCTAGTGCAG | 36800 fluorescence intensity (a.u.) |
| CGAATTGATGACCGAATTTCTCGGTCTCGGTCTTTTCAGTCGGAGTCACCTAGTGCAG | 14700 fluorescence intensity (a.u.) |
| ATCTTGACAAATATTATCTCAATAACAGGTCACTGAGATGCGGAGTCACCTAGTGCAG | 4840 fluorescence intensity (a.u.) |
| GATCAATCACAGAGCAAAGCAGCCATTCCTCACGTCACGTCGGAGTCACCTAGTGCAG | 19500 fluorescence intensity (a.u.) |
| AACAGCTCAATTAATTAATCGCCCACACCGAAGCGCGCACCGGAGTCACCTAGTGCAG | 18600 fluorescence intensity (a.u.) |
| TATCATCTATATCTCAAATTGACACATCCCCTCTAGGATCCGGAGTCACCTAGTGCAG | 5880 fluorescence intensity (a.u.) |
| TTTGACAGAAACCCAACATAACCATGGAAGTTCTACTAACCGGAGTCACCTAGTGCAG | 7120 fluorescence intensity (a.u.) |
| GTTCGAGTAATTTACGGTCCATGACAGGCAGGCAAAGTTACGGAGTCACCTAGTGCAG | 7520 fluorescence intensity (a.u.) |
| CATCATCTCTAATTTTAATCAAAATATAAACTTTGCAGTGCGGAGTCACCTAGTGCAG | 9140 fluorescence intensity (a.u.) |
| ATATGTTAGATAGATATATAGATAGATAGATACACTATCTCGGAGTCACCTAGTGCAG | 8740 fluorescence intensity (a.u.) |
| CAAATTAACAACCTGTCATGCAAATGATCACCAAATCCGTCGGAGTCACCTAGTGCAG | 23000 fluorescence intensity (a.u.) |
| CTAGTGATTAGCGGCTGCATGCAAGCATTTAGTTGGATGTCGGAGTCACCTAGTGCAG | 22000 fluorescence intensity (a.u.) |
| ACTATGGTTTAAATTGACGTCTATGAATACCACACATACGCGGAGTCACCTAGTGCAG | 12000 fluorescence intensity (a.u.) |
| CAAATAATTTAGGTTAACGACTCCAGTCAAAGCAAGTGAACGGAGTCACCTAGTGCAG | 16000 fluorescence intensity (a.u.) |
| TTTAATTGCAAGCTTTGTATATGCCTACTTTACTTGCCATCGGAGTCACCTAGTGCAG | 29900 fluorescence intensity (a.u.) |
| TCCTTCCTCTAATCACCCATCCATTCGCCATCATTGCTTCCGGAGTCACCTAGTGCAG | 3340 fluorescence intensity (a.u.) |
| TGCACTTGATTAGTACAGGAGTTAACTGCATCTACGACTCCGGAGTCACCTAGTGCAG | 6960 fluorescence intensity (a.u.) |
